Data on 80 compounds can be found in publication PMC12040169 (PLOS Biology, 2025).

The list shows a part of the results.

For this experiment, the system named is T1, C. trachomatis L2/434/Bu expressing GFP (CTL2-GFP).
T1 construct: L2/434/Bu GFP intracellular growth in HeLa cells
The arrangement: species or system HeLa; C. trachomatis total inclusion area by high-content imaging, normalised to DMSO. To be noted: total inclusion area; 28.5 h, 10 µM; inhibitor. The method in brief:
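Host cell viability was gauged from Hoechst-stained nuclei counts, while chlamydial growth was taken from total inclusion area and inclusion number per well. Cells were fixed and imaged by high-content microscopy once bulk GFP and resorufin fluorescence had been measured.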
On to `CCOc1cccc(/C=N\NC(=O)C2COc3cc4ccccc4cc3O2)c1O` (centres unmarked) [CBK262846], for which the “% of control remaining” value is on record as 69.6074.
Under `COC(=O)c1ccc(C)c(N(CCO)CCO)c1` [CBK262418] stands 100.897; under `CCN(CC)CCOC(=O)c1oc2c3c(ccc2c1C)OCCO3` [CBK008676C], 72.4054; under `CCOCCn1c(N2CC(C)CC(C)C2)nc2c1c(=O)[nH]c(=O)n2C` (centres unmarked) [CBK306200], 52.421.
For `COc1ccc(C)cc1NS(=O)(=O)c1cc(I)c2occc2c1` [CBK078531], the “% of control remaining” value was determined as 88.6162.
For `CSc1ccccc1CNC(=O)c1cc(Br)cnc1N(C)S(C)(=O)=O` [CBK076529], the “% of control remaining” value was 79.057.
With `O=C1NC2(CCC2)C(=O)N1Cc1coc(-c2cccs2)n1` [CBK305209], the “% of control remaining” value amounted to 81.2927.
The value for `O=C(Nc1ccccc1)c1ccccc1OCc1ccc(S(=O)(=O)N2CCOCC2)cc1` [CBK267396] was 100.271.
As to `CC(C)[C@@H](CO)Nc1nc(-c2ccc3ccccc3c2)cn2ccnc12` [CBK037445], the “% of control remaining” value was 100.913.
The value for `CN(C)C(=O)NCCNC(=O)c1c[nH]nc1-c1cc2ccccc2o1` [CBK306157] was 74.4957; that for `NC(=O)C1CCN(S(=O)(=O)c2ccc([N+](=O)[O-])cc2)CC1` [CBK261455] was 95.4312.
Under `NS(=O)(=O)c1ccc(C(=O)Nc2cccc3cc[nH]c23)cc1` [CBK160094] stands 103.607; under `O=[N+]([O-])c1cc(Nc2ncnc3ccccc23)cc(Oc2ccccc2)c1` [CBK293928], 74.2117; under `O=C(Nc1ccccc1C(=O)NCCCc1nc2ccccc2[nH]1)c1cccs1` [CBK296641], 109.989.
The value for `CC(C)(C)C(=O)NC(N(Cc1ccccc1)Cc1ccccc1)C(Cl)(Cl)Cl` (centres unmarked) [CBK261023] was 114.477; that for `Cc1nn2c(c1-c1ccccc1)NC(=O)CC2C(=O)O` (centres unmarked) [CBK287118] was 97.1493.
For the compound `O=C(c1ccc2occc2c1)N1CCCC2(CCN(C(=O)c3cc(F)c(F)cc3F)C2)C1` (centres unmarked) [CBK137071], the “% of control remaining” value is 107.242.
Consider `COc1cccc(C(O)CN2CCC3(CC2)CC(O)c2cc(Cl)c(C)cc2O3)c1` (centres unmarked) [CBK286342], for which the “% of control remaining” value is on record as 75.4746.
Turning to `Cn1cc2c(n1)[C@H]1CN(C(=O)c3cc(C(F)(F)F)n(C)n3)C[C@H]1C2` [CBK283399], the “% of control remaining” value was determined as 92.324.
Under `O=S(=O)(Nc1ccccc1N1CCCCC1)c1ccc(Cl)cc1` [CBK077063] stands 69.7376.
The value for `CCOC(=O)CNc1ccc(C(F)(F)F)cc1` [CBK057732] was 72.4778.
Under `COc1ccc(C)cc1OCCO` [CBK001975] stands 80.778.
Take `CCCn1nnc(NC(=O)COc2ccc3ccccc3c2)n1` [CBK265923]: the “% of control remaining” value amounted to 122.665.
The value for `O=C(CCc1ccc(=O)[nH]n1)N1CCCCC1c1nc2cc(F)ccc2[nH]1` (centres unmarked) [CBK291107] was 113.81; that for `CCc1ccc(OC(C)c2nnc(SCC(=O)N3c4ccccc4Sc4ccccc43)n2C)cc1` (centres unmarked) [CBK268058] was 109.681.
Under `CCN1CCN(c2cc3c(cc2F)c(=O)c(C(=O)NCCOC)cn3C2CC2)CC1` [CBK300529] stands 0.2384; under `COc1ccccc1OC(=O)c1ccccc1Cl` [CBK090164], 22.4574; under `Fc1ccccc1Oc1nnnn1-c1ccccc1` [CBK002526], 83.37.
`O=C(NCc1ccccc1)c1ccco1` [CBK086713]: the “% of control remaining” value was found to be 98.3636.
Under `CCCOc1ccc(-c2nnn(CC(=O)OCC)n2)cc1` [CBK068817] stands 103.897; under `Cc1noc(C)c1CN1CCN(CC(CC(=O)Nc2ccccc2)C(=O)O)CC1` (centres unmarked) [CBK286858], 67.9168; under `Cc1cc(=O)n(CC(=O)NCCn2ccnc2)c2ccccc12` [CBK281583], 70.026.
Under `COc1cc(C2C(C#N)=C(N)OC3=C2C(=O)CC(c2ccccc2)C3)cc(Br)c1O` (centres unmarked) [CBK261587] stands 111.016; under `COc1ccc(Cl)cc1NC(=O)Nc1ccc(C(=O)N2CCOCC2)cc1` [CBK266958], 107.237; under `CCN(CC)C(=O)c1sccc1NS(=O)(=O)Cc1ccccc1` [CBK050393], 91.5888.
On to `CCOC(=O)c1ccccc1NS(=O)(=O)c1ccc(C(F)(F)F)cc1[N+](=O)[O-]` [CBK050584], for which the “% of control remaining” value was 68.1562.
Turning to `NS(=O)(=O)c1ccc(/N=C/c2cccc(O)c2O)cc1` [CBK261533], the “% of control remaining” value is listed as 98.6728.
Take `CN(C)c1ccccc1-c1cc(Nc2ccc3cn[nH]c3c2)ncn1` [CBK090850]: the “% of control remaining” value came out at 34.797.
For `CCCN1CCN(c2ncc(CNS(=O)(=O)c3ccc(Cl)cc3)cn2)CC1` [CBK010261], the “% of control remaining” value worked out at 83.0212.
With `O=C(CCn1c(C(F)(F)F)cc2cccnc21)N1CCC(O)CC1` [CBK284887], the “% of control remaining” value came out at 128.756.
For `O=C(c1cccc(F)c1)N1CCCC1c1cc2cccnc2[nH]1` (centres unmarked) [CBK285081], the “% of control remaining” value was 107.795.
Under `CCc1cc(Br)ccc1S(=O)(=O)Nc1ccnn1CC` [CBK044900] stands 90.0468.
For the compound `CCSc1nnc(-c2cccc(C)c2)n1CC1CCCCC1` [CBK085419], the “% of control remaining” value was 104.081.
Regarding `CCOc1ccc(Cl)cc1CCNC(=O)NC(C)c1nnnn1C` (centres unmarked) [CBK305923], the “% of control remaining” value came out at 94.2712.
The value for `O=C(COc1ccc(S(=O)(=O)N2CCCCC2)cc1Cl)N1CCc2ccccc2C1` [CBK269510] was 102.968.
Under `O=C(NCc1ccc(F)cc1)Nc1ccccc1F` [CBK115584] stands 90.6082; under `CCc1cccc2c(CN3CCc4nc(C)[nH]c(=O)c4C3)c[nH]c12` [CBK283931], 81.451; under `Cc1ccc(NC(=O)C2CC(=O)Nc3nc(SCc4ccccc4C)[nH]c(=O)c32)c(C)c1` (centres unmarked) [CBK294438], 113.316.
Under `O=C(Nc1cccc(-c2cccc(F)c2)c1)c1ccccc1Cn1cncn1` [CBK285735] stands 101.921; under `CNC(=O)c1sc2ccccc2c1C1CN(Cc2cn(C)c3cc(OC)ccc23)CCO1` (centres unmarked) [CBK286087], 123.077.
Regarding `COC(=O)COc1ccc(S(=O)(=O)NCc2ccc3c(c2)OCO3)cc1C` [CBK267172], the “% of control remaining” value was 114.515.
Under `COc1ccnc(N2CCN(C(=O)c3cnn(C)c3C3CC3)CC2)n1` [CBK304900] stands 25.5019; under `O=C1/C(=C/c2ccc(OCc3ccccc3Cl)c(Cl)c2)SC(=S)N1Cc1cccnc1` [CBK264702], 113.036; under `COC(=O)[C@@H](NC(=O)C1CCN(C(=O)OCc2ccccc2)CC1)c1ccccc1` [CBK081468], 85.6406.
Under `CCOC(=O)CNS(=O)(=O)c1ccc(C(F)(F)F)cc1[N+](=O)[O-]` [CBK034446] stands 72.1487.
The value for `C=CCn1c2cc(C)sc2c2cnn(CC(=O)N(C)C)c(=O)c21` [CBK284164] was 71.4686; that for `O=C(COc1ccc(Cl)cc1Br)NNC(=O)c1ccc(O)cc1` [CBK262950] was 104.717.
Turning to `CN1CCCC1CCOc1ncccc1OCCO` (centres unmarked) [CBK039176], the “% of control remaining” value is 119.027.
The value for `O=C(NCN1CCN(c2ccc([N+](=O)[O-])cc2)CC1)c1cccnc1` [CBK264909] was 84.5323.
The value for `c1ccc(C(NCc2nnc(-c3ccco3)o2)C2CCC2)cc1` (centres unmarked) [CBK305818] was 59.9816.
Take `Cc1c(C)n(Cc2ccco2)c2ncnc(NCCC(=O)O)c12` [CBK307564]: the “% of control remaining” value came to 13.732.
Under `O=C1Nc2ccc(-c3cccc(C(F)(F)F)c3)cc2C(=O)N2CCN(C(=O)C3CC3)C[C@H]12` [CBK289585] stands 95.1123; under `CN(C)C(=O)c1ccc(-c2ccc(OC3CCN(C(=O)CCc4cccnc4)CC3)nc2)cc1` [CBK155049], 74.0588.
As for `Cc1nc2cc(/N=C/c3c[nH]c4ccccc34)ccc2n1C` [CBK262085], the “% of control remaining” value was determined as 112.364.
Turning to `Cn1ccnc1CN(CCCn1ccnc1)Cc1ccccc1F` [CBK283022], the “% of control remaining” value is reported as 74.2051.
`O=C(Cn1c(-c2cccs2)cc2cccnc21)NC1CC1` [CBK282552]: the “% of control remaining” value came out at 110.306.
The value for `CCC(NC(=O)c1cc(CC(C)C)nn1CC)c1cn2cccnc2n1` (centres unmarked) [CBK307505] was 105.887; that for `O=C(Cc1c(F)cccc1F)Nc1ccc2[nH]ccc2c1` [CBK144712] was 116.423.
For `O=C(CCc1nc2ccccc2s1)Nc1nc2ccccc2[nH]1` [CBK287988], the “% of control remaining” value was determined as 93.3949.
The value for `COc1ccc(C(=O)N2CCC3(CCCN(C(=O)CN4C(=O)CSC4=O)C3)C2)cc1OC` (centres unmarked) [CBK137088] was 100.055.
The value for `COCc1nc(NCCCn2c(C)cccc2=O)cc(C2CCOC2)n1` (centres unmarked) [CBK306845] was 70.1008; that for `Cc1ccc(Cn2cnc3c(cnn3-c3ccc(C)c(C)c3)c2=O)cc1` [CBK287540] was 110.934; that for `O=C1NC(=S)S/C1=C\c1cn(-c2ccccc2)nc1-c1ccc(OCc2ccccc2)cc1` [CBK265496] was 106.024.
Under `CSc1ncc(Cl)c(C(=O)Nc2sc3c(c2C(=O)NCc2cccnc2)CCC3)n1` [CBK268710] stands 81.8419.
Consider `CCc1nc2ccc(C(=O)N(C)Cc3ccccc3)cn2c1N(C=O)CC` [CBK145936], for which the “% of control remaining” value was 93.7313.
Under `COc1ccc2c(c1)CC1(CCC(NCCCC(=O)c3ccc(F)cc3)CC1)C2` (centres unmarked) [CBK016054C] stands 26.8747.
On to `CC(=O)Nc1cc(I)cc(C(=O)O)c1` [CBK026452G], for which the “% of control remaining” value is 90.4006.
The value for `CCCC/C=C/c1cncc(N2CCN(Cc3ccccn3)CC2)n1` [CBK066096] was 102.856; that for `CCOC(=O)C1(C2CCCCC2)CCN(C(=O)c2cc(C)[nH]n2)CC1` [CBK137100] was 104.195.
The value for `CCCCNC(=O)c1ccc2nc(CC)c(N(C)C(=O)C3CCCCC3)n2c1` [CBK145791] was 112.073.
